From the RNAGym collection of RNA variant scans (doi:10.7554/elife.90254)
The source gives no read counts; variants with many changes may rest on few reads.

B1: LINE1-full (parent)
chain: UACGUAGGUGGUUUUCCCCUGAUAGUGCUAAGGGGGCCUGGAAGUUUGGACUGGGCAGAGCUCAACACAGCGUGGCAAAGUGGCUGUGGCUAGACUGCCUCUCUGGAUUCCUCGUCACUCAGCAGGGCAUCUCUGAGAGAAAUGCC

Variants of: B1
Assay: self-cleavage, relative activity (ratio to wild type); higher = more cleavage; in vitro, sequencing; the parent is a self-cleaving ribozyme

| Variant | self-cleavage |
| --- | --- |
| UACGUAGGUGGUUUUCCCCUGAUAGCGCUAAGGGGGCCUGGAAGUUUGGACUGGGCAGAGCUCAACACAGCGUGGCGAAGUGGCAGUGGCUAGACUGCCUCUCUGGAUUCCUCGUCACUCAGCAGGGCAUCUCUGAGAGAAAUGCC [U26C A77G U85A] | 0.43 |
| UACGUAGGUGGUUUUCCCCUGAUAGCGCUAAGGGGGCCUGGAAGUUUGGACUGGGCAGAGAUCAACACAGCGUAGCAAAGUGGCUGUGGCUAGACUGCCUCUCUGGAUUCCUCGUCACUCAGCAGGGCAUCUCUGAGAGAAAUGCC [U26C C61A G74A] | 0.03 |
| UACGUAGGUGGUUUUCCCCUGAUAGCGCUAAGGGGGCCUGGAAGUUUGGACUGGGCAGAGCUCAACACAGCGUGGCAAAGUGGCUGUGGCUAGACUGCCUCUCUGGAUUCCUCGUCACUCAGCAGGGCAUCUCUGAGAGGAAUGCA [U26C A140G C146A] | 1.02 |
| UACGUAGGUGGUUUUCCCCUGAUAGCGCUAAGGGGGCCUGGAAGUUUGGACUGGGCAGAGCUCAUCACAGCGUGGCAAAGUGGCUGUGGCUAGACUGCCUCUCUGGAUUCCCCGUCACUCGGCAGGGCUUCUCUGAGAGAAAUGCC [U26C A65U U112C A121G A129U] | 0.41 |
| UACGUAGGUGGUUUUCCCCUGAUAGCGCUAAGGGGGCCUGGAAGUUUGGACUGGGCAGAGCUCAACACAGCGUGGCAGAGUGGCCGUGGCUAGACUGCCUCUCUGGAUUCCUCGUCACUCAGCAGGGCAUCUCUGAGAGAAAUGCC [U26C A78G U85C] | 0.11 |
| UACGUAGGUGGUUUUCCCCUGAUAGCGCUAAGGGGGCCUGGAAGUUUGGACUGGGCAGAGCUCAACACAGCGUGGCAGAGUGGCUGUGGCUAGACUGCCUCUCUGGAUUCCUCGUCACUCAGCAGGGCAUCUCUGGGAGAAAUGCC [U26C A78G A136G] | 1.31 |
| UACGUAGGUGGUUUUCCCCUGAUAGCGCUAAGGGGGCCUGGAAGUUUGGACUGGGCAGAGCUUAACACAGCGUGGCAAAGUGGCUGUGGCUAGACUGCCUCUCUGGAUUCCUCGUCACUCAGCAGGGCAUCCCUGAGAGAAAUGCC [U26C C63U U132C] | 0.57 |
| UACGUAGGUGGUUUUCCCCUGAUAGCGCUAAGGGGACCUGGAAGUUUGGACUGGGCAGAGCUCAACACAGCGUGGCAAAGCGGCUGUGGCUAGACUGCCUCUCUGGAUUCCUCGUCACUCAGCAGGGCAUCUCUGAGAGUAAUGCC [U26C G36A U81C A140U] | 1.1 |
| UACGUAGGUGGUUUUCCCCUGAUAGCGCUAAGGGGGCCUGGAAGUUUGGAUCGGGCAGAGCUCAACACAGCGUGGCAAAGUGGCUGUGGCUAGACUGCCUCUCUGGAUUCCUCGUCACUCAGCAGGGCAUCUCUGAGAGAAAUGCC [U26C C51U U52C] | 1.87 |
| UACGUAGGUGGUUUUCCCCUGAUAGCGCUAAGGGGGCCUGGAAGUUUGGACUGGGCAGAGCUCAACACUGCGUGGCAAAGUGGCUGUGGCUAGACUGCCUCUCUGGAUUCCUCGUCACUCAGCAGGGCUCCUCUGAGAGAAAUGCC [U26C A69U A129U U130C] | 0.22 |
| UACGUAGGUGGUUUUCCCCUGAUAGCGCUAAGGGGGCCUGGAAGUUUGGACUGGGCAGAGCUCAACACAGCGUGGCAAAGUGGCUGUGGCUAGACUGCCUAUCUGGAAUCCUCGUCACUCAGCAGGGCAUCUCUGAGAGAAAUGCC [U26C C101A U108A] | 1.28 |
| UACGUAGGUGGUUUUCCCCUGAUAGCGCUAAGGGGGCCUGGAAGUUUAGACUGGGCAGAGCUCAACACAGCGUGGCAAAGUGGCUGUGGCUAGACUGCCUCUCUGGAUUCCUCGUCACUCGACAGGGCAUCUCUGAGAGAAAUGCC [U26C G48A A121G G122A] | 1.45 |
| UACGUAGGUGGUUUUCCCCUGAUAGCGCUAAGGGGGCCUGGAAGUUUGGACUGGGCAGAGCUCAACGCAGCGUGGCAAAGUGGCUGUGGCUAGACUGCCUCACUGGAUUCCUCGUCACUCAGCAGGGCAUCUCUGAGAGAAAUGCC [U26C A67G U102A] | 0.9 |
| UACGUAGGUGGUUUUCCCCUGAUAGCGCUAAGGGGGCCUGGAAGUUUGGACUGGGCAGAGCUCAACACAGCGUGGCAAAGUGGCUGUGGCUUGACUGCCUCUCUGGAUCCCUCGUCACUCAGCAGGGCAUCUCUGAGAGAAGUGCC [U26C A92U U109C A142G] | 1.05 |
| UACGUAGGUGGUUUUCCCCUGAUAGCGCUAAAGGGGCCUGGAAGUUUGGGCUGGGCAGAGCUCAACACAGCGUGGCAAAGUGGCUGUGGCUAGACUGCCUCUCUGGACUCCUCGUCACUCAGCAGGGCAUCUCUGAGAGAAAUGCC [U26C G32A A50G U108C] | 1.27 |
| UACGUAGGUGGUUUUCCCCUGAUAGCGCUAAGGGGGCCUGGAAGUUUGGACUGGGCAGAGUUCAACGCAGCGUGGCAAAGUGGCUGUGGCUAGACUGCCUCUCUGGAUUCCUCGUCACUCAGCAGGGCAUCUCUGAGAGAAAUGCC [U26C C61U A67G] | 0 |
| UACGUAGGUGGUUUUCCCCUGAUAGCGCUAAGGGGGCCUGGAAGUUUGGACUGGGCAGAGCUCAACACAGCGUGGCAAAGUGGCUGUGGCUAGUCCGCCUCUCUGGAUUCCUCGUCACUCAGCAGGGCAUCUCUGAGAGAAAUGCC [U26C A94U U96C] | 0.12 |
| UACGUAGGUGGUUUUCCCCUGAUAGCGCUAAGGGGGCCUGGAAGUUUGGACUGGGCAGAGCUCAACACAGCGUGGCAAAGUGGCUGUGGCUAGACUGCCUCUCUGGAUUCCUCGUCGCUCAGCUGGGCAUCUCUGAGAGAAAUGCC [U26C A117G A124U] | 1.12 |
| UACGUAGGUGGUUUUCCCCUGAUAGCGCUAAGGGGGCCUGGAAGUUUGGACUGGGCAGAGCUCAACACAGCGUGGCAAAGUGGCUGUGGCUAGACUGCCUCUCUGGGUUCAUCGUCACUCAGCAGGGCAUCUCUGAGAGAAAUGCC [U26C A107G C111A] | 1.08 |
